# Test results: PubChem BioAssay (Tox21)
# This list was built around the results that the source calls inconclusive (neither active nor inactive); the mix of calls is not that of the screen. For part of these data: Potencies beside an inconclusive call are fits to weak or partial responses and may not hold up. The source made the active and inactive calls. Unless noted, the call rests on the fitted dose curve; in most records, active means well fitted curve in the direction sought with a large enough effect in the repeat runs; inconclusive means weak or mixed curves; inactive means no such curve, though single readings can be large; an effect the other way counts as inactive or inconclusive.
# Key:
# [1] = qHTS assay for small molecule agonists of the antioxidant response element (ARE) signaling pathway (AID 743202; active means well fitted activation curve with a large enough effect in the signal ratio in the repeat runs, not every such curve was filed as active; inconclusive means weak or mixed curves, or effect the other way; inactive means no such curve, though single readings can be large or run the other way; the % refers to the signal ratio; further: potency means the concentration at half of the fitted maximal effect); details: HepG2 ARE-bla reporter, beta-lactamase FRET, 16 h; activation: at 73.3 µM (top of the series) unless noted
# In short: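 HepG2 ARE-bla reporter line, 2,000 cells/well; 5 h preincubation 37 C/5% CO2; compound (DMSO) 16 h 37 C; B/G FRET substrate 2 h RT; fluorescence intensity.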
# [2] = target: Peroxisome proliferator-activated receptor delta (Homo sapiens) (UniProt Q03181); assay: qHTS assay to identify small molecule antagonists of the peroxisome proliferator-activated receptor delta (PPARd) signaling pathway (AID 743215; active means well fitted inhibition curve with a large enough effect in the signal ratio in the repeat runs, not every such curve was filed as active; inconclusive means weak or mixed curves, or effect the other way; inactive means no such curve, though single readings can be large or run the other way; the % refers to the signal ratio;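 further: cells stimulated with agonist L165041 at 300 nM final during compound exposure; on the % scale 0 is the no-effect control and ±100 the full control effect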); details: HEK293H PPARd-UAS-bla, beta-lactamase FRET ratio, antagonist, 17 h; ratio activity, negative = inhibition: at 62 µM (top of the series) unless noted
# In short: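 Screen format: qHTS, antagonist mode. HEK293H PPARd-bla cells received compound and 300 nM L165041 (final), 17 h, 37 C. Beta-lactamase detected via FRET substrate fluorescence, 2 h, room temperature.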
# [3] = qHTS RealTime-Glo MT Cell Viability Assay in HEK293 cells - 24 hour (AID 1224886); further: potency means the concentration at half of the fitted maximal effect; nearly all actives have a fitted effect of over 50% in size
# In short: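 Viability tracked continuously by luminescence as live cells reduce a prosubstrate for NanoLuc; HEK293 cells preincubated 5 h, compound-treated at 37 C, and read at 0, 8, 16, 24, 32 and 40 h.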
# [4] = target: Cytochrome P450 1A2 (Homo sapiens) (UniProt P05177); assay: Cytochrome P450 Family 1 Subfamily A Member 2 (CYP1A2) small molecule antagonists: luciferase reporter qHTS assay (AID 1671199); further: nearly all actives have a fitted effect of over 50% in size; further: potency means the concentration at half of the fitted maximal effect
# In short: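 Read-out is luminescence from luciferin detection reagent (20 min) proportional to CYP1A2 activity; compounds in DMSO preincubated 10 min with enzyme and proluciferin substrate, then NADPH regeneration solution, 1 h, room temperature.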
# [5] = qHTS assay for small molecule agonists of the p53 signaling pathway (AID 651631; calls by dose curve; further: on the % scale 0 is the no-effect control and ±100 the full control effect; nearly all actives have a fitted effect of over 15% in size); details: HCT-116 p53RE-bla reporter, beta-lactamase FRET ratio, 16 h; activation: at 73.3 µM (top of the series) unless noted
# In short: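 Readout was fluorescence from the LiveBLAzer FRET substrate, applied for 2 h at room temperature after 16 h compound exposure at 37 °C. Cells were the p53RE-bla HCT-116 line, with beta-lactamase driven by p53 response elements.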
# [6] = qHTS assay for small molecule disruptors of the mitochondrial membrane potential (AID 720635); details: HepG2 mitochondrial membrane potential, Mito-MPS dye ratio; further: on the % scale 0 is the no-effect control and ±100 the full control effect
# In short: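 HepG2 cells exposed to compound 1 hr at 37C, then Mito-MPS dye 30 min. Ratio read of aggregate (540/590 nm) versus monomer (490/535 nm) fluorescence.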
# [7] = target: Glucocorticoid receptor (Homo sapiens) (UniProt P04150); assay: qHTS assay to identify small molecule antagonists of the glucocorticoid receptor (GR) signaling pathway (AID 720692; active means well fitted inhibition curve with a large enough effect in the signal ratio in the repeat runs, not every such curve was filed as active; inconclusive means weak or mixed curves, or effect the other way; inactive means no such curve, though single readings can be large or run the other way; the % refers to the signal ratio; further: on the % scale 0 is the no-effect control and ±100 the full control effect); details: GR-bla HeLa, beta-lactamase FRET ratio, dexamethasone-stimulated, 18 h; activity change, negative = inhibition: at 58.5 µM (top of the series) unless noted
# In short: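 Tox21 10K library screened in concentration-response for blockade of dexamethasone (5 nM final)-induced GRE-bla reporter activity in HeLa cells; 18 h treatment, fluorescence read.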
# [8] = target: Vitamin D3 receptor (Homo sapiens) (UniProt P11473); assay: qHTS assay to identify small molecule antagonists of the vitamin D receptor (VDR) signaling pathway (AID 743223; active means well fitted inhibition curve with a large enough effect in the signal ratio in the repeat runs, not every such curve was filed as active; inconclusive means weak or mixed curves, or effect the other way; inactive means no such curve, though single readings can be large or run the other way; the % refers to the signal ratio; further: on the % scale 0 is the no-effect control and ±100 the full control effect); details: VDR-UAS-bla HEK293T, beta-lactamase FRET ratio, 16 h; activity change, negative = inhibition: at 61 µM (top of the series) unless noted
# In short: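 Antagonist mode: compound added to VDR-bla cells alongside agonist 1alpha,25-dihydroxyvitamin D3 (3 nM final), incubation 16 h at 37C. Read-out is LiveBLAzer FRET fluorescence, 2 h at room temperature.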
# [9] = target: Luciferin 4-monooxygenase (Photinus pyralis) (UniProt P08659); assay: qHTS assay to identify small molecule inhibitors of firefly luciferase (AID 1224835); further: nearly all actives have a fitted effect of over 25% in size; further: potency means the concentration at half of the fitted maximal effect
# In short: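 Biochemical qHTS: compounds run as interplate titrations against purified firefly enzyme, with D-luciferin and ATP each at its KM concentration. Light output recorded by CCD imaging.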
# [10] = target: Progesterone receptor (Homo sapiens) (UniProt P06401); assay: qHTS assay to identify small molecule antagonists of the progesterone receptor (PR) signaling pathway (AID 1346795; active means well fitted inhibition curve with a large enough effect in the signal ratio in the repeat runs, not every such curve was filed as active; inconclusive means weak or mixed curves; the % refers to the signal ratio; further: potency means the concentration at half of the fitted maximal effect); details: PR-UAS-bla HEK293T, beta-lactamase FRET ratio, 16 h; activity change, negative = inhibition: at 92.4 µM (top of the series) unless noted
# In short: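 Antagonist mode with agonist R5020 at 1 nM final and 16 hr incubation at 37C. Reporter was beta-lactamase driven by UAS in HEK293T (PR-UAS-bla), 2% charcoal-stripped serum; signal from LiveBLAzer FRET substrate, 2 hr at room temperature.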
# [11] = qHTS assay to identify small molecule antagonists of the thyroid receptor (TR) signaling pathway - cell viability counter screen (AID 743064); details: GH3.TRE-Luc viability, CellTiter-Fluor, 24 h; activity change, negative = cytotoxic: at 70.3 µM (top of the series) unless noted; further: nearly all actives have a fitted effect of over 50% in size; further: potency means the concentration at half of the fitted maximal effect
# In short: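 In-well cytotoxicity read by CellTiter-Fluor (30 min, 37 C) following 23.5 h exposure of GH3 cells bearing a TRE-luciferase sensor. Compounds were added alongside 1 nM (final) T3 to drive TR transactivation.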
# [12] = target: Peroxisome proliferator-activated receptor gamma (Homo sapiens) (UniProt P37231); assay: qHTS assay to identify small molecule antagonists of the peroxisome proliferator-activated receptor gamma (PPARg) signaling pathway (AID 743191; calls by dose curve; further: on the % scale 0 is the no-effect control and ±100 the full control effect; nearly all actives have a fitted effect of over 30% in size); details: HEK293H PPARg-UAS-bla, beta-lactamase ratio, antagonist, 17 h
# In short: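 GeneBLAzer PPARg UAS-bla HEK293H cells, 5 h post-plating, exposed to compounds 17 h at 37C. LiveBLAzer B/G FRET substrate added for 1 h at room temperature; beta-lactamase reporter read by fluorescence intensity.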
# [13] = target: Estrogen receptor beta (Homo sapiens) (UniProt Q92731); assay: qHTS assay to identify small molecule antagonists of the estrogen receptor beta (ER-beta) signaling pathway (AID 1259378; active means well fitted inhibition curve with a large enough effect in the signal ratio in the repeat runs, not every such curve was filed as active; inconclusive means weak or mixed curves, or effect the other way; inactive means no such curve, though single readings can be large or run the other way; the % refers to the signal ratio; further: on the % scale 0 is the no-effect control and ±100 the full control effect); details: ER-beta-UAS-bla HEK293T, beta-lactamase FRET ratio, 16 h; activity, negative = inhibition: at 92.4 µM (top of the series) unless noted
# In short: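 ER-beta-UAS-bla HEK293T cells in 2% charcoal-stripped FBS medium treated with compound plus 1nM final 17-beta-estradiol for 16 hr at 37C. Beta-lactamase reporter read by FRET substrate fluorescence after 2 hours at room temperature.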
# [14] = qHTS assay to identify small molecule antagonists of the progesterone receptor (PR) signaling pathway - cell viability counter screen (AID 1346798); further: nearly all actives have a fitted effect of over 50% in size; further: potency means the concentration at half of the fitted maximal effect
# In short: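 Cytotoxicity read as CellTiter-Glo luminescence (30 min, room temperature) in the same wells as the beta-lactamase readout. HEK293T PR-UAS-bla cells in charcoal-stripped 2% FBS received compound and R5020, then 16 h at 37C, 5% CO2.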
# [15] = target: Cytochrome P450 2D6 (Homo sapiens) (UniProt P10635); assay: Cytochrome P450 Family 2 Subfamily D Member 6 (CYP2D6) small molecule antagonists: luciferase reporter qHTS assay (AID 1671196)
# In short: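 Chemicals tested for interference with CYP2D6 activity; proluciferin substrate, NADPH regeneration, 1 h at room temperature, luminescent detection.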
# [16] = target: Cytochrome P450 2C9 (Homo sapiens) (UniProt P11712); assay: Cytochrome P450 Family 2 Subfamily C Member 9 (CYP2C9) small molecule antagonists: luciferase reporter qHTS assay (AID 1671198); further: nearly all actives have a fitted effect of over 50% in size; further: potency means the concentration at half of the fitted maximal effect
# In short: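 P450-Glo proluciferin substrate with CYP2C9 enzyme; 10 min RT preincubation, then NADPH regeneration 1 h at 37C; luciferin detection reagent 20 min RT, luminescence in relative luminescence units.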
# [17] = qHTS assay to identify small molecule agonists of the progesterone receptor (PR) signaling pathway - cell viability counter screen (AID 1346799; calls by dose curve; further: nearly all actives have a fitted effect of over 45% in size; further: potency means the concentration at half of the fitted maximal effect)
# In short: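 Cytotoxicity measured by CellTiter-Glo luminescence (30 min, RT) in the same wells as the PR beta-lactamase agonist read. Those HEK293T cells had 16 h compound treatment at 37 C in 2% charcoal-stripped FBS medium.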
# [18] = qHTS assay for identifying genotoxic compounds that show differential cytotoxicity against isogenic chicken DT40 cell lines with known DNA damage response pathways - wild type cell line (AID 743012); details: DT40 wild type chicken cells viability, CellTiter-Glo, 40 h; activity change, negative = cytotoxicity: at 68.4 µM (top of the series) unless noted; further: potency means the concentration at half of the fitted maximal effect; nearly all actives have a fitted effect of over 60% in size
# In short: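 Endpoint: CellTiter-Glo luminescence, 30 min RT. Cells: wild type DT40, 300/well. Exposure: compounds in DMSO, 40 h, 37 C/5% CO2, after ~0.5 h pre-incubation.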
# [19] = qHTS assay for identifying genotoxic compounds that show differential cytotoxicity against isogenic chicken DT40 cell lines with known DNA damage response pathways - Rev3 mutant cell line (AID 743014); details: chicken DT40 Rev3-/- viability, CellTiter-Glo, 40 h; activity, negative = cytotoxicity: at 68.4 µM (top of the series) unless noted; further: on the % scale 0 is the no-effect control and ±100 the full control effect; nearly all actives have a fitted effect of over 55% in size
# [20] = ratio activity, negative = MMP loss: at 83.2 µM (top of the series) unless noted
# [21] = ratio activity, negative = inhibition: at 62.6 µM (top of the series) unless noted
# Tags describe the fitted curve by direction and shape.
# Chain of UniProt P08659 (P08659 whole entry, looked up): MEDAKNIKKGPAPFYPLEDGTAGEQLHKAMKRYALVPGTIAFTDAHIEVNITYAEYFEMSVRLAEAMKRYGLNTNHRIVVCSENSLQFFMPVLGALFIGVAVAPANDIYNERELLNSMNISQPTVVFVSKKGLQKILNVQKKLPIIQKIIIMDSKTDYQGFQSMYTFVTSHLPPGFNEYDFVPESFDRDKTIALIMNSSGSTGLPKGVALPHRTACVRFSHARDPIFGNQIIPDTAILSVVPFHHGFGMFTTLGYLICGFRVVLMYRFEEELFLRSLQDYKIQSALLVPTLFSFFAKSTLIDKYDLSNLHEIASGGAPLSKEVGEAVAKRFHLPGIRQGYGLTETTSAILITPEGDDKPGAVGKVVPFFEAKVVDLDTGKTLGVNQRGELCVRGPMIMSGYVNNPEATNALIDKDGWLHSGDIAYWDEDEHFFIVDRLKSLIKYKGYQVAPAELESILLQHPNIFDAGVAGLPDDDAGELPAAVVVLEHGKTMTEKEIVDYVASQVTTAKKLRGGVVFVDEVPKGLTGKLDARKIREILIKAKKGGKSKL
# Chain of UniProt P37231 (P37231 whole entry, looked up): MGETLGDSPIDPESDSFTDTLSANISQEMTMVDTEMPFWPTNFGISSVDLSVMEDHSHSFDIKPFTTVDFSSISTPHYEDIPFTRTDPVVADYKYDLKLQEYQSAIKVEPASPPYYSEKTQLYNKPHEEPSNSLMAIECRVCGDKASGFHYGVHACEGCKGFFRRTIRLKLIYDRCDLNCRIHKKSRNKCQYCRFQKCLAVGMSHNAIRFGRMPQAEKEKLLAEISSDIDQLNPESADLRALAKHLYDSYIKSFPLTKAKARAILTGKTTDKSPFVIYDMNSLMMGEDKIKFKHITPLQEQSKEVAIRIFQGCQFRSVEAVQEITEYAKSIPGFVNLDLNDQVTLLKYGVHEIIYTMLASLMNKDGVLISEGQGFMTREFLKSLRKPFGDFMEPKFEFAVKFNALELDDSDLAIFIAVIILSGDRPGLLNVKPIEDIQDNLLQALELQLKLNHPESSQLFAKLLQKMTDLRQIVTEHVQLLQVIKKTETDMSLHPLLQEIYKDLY
# Chain of UniProt P10635 (P10635 whole entry, looked up): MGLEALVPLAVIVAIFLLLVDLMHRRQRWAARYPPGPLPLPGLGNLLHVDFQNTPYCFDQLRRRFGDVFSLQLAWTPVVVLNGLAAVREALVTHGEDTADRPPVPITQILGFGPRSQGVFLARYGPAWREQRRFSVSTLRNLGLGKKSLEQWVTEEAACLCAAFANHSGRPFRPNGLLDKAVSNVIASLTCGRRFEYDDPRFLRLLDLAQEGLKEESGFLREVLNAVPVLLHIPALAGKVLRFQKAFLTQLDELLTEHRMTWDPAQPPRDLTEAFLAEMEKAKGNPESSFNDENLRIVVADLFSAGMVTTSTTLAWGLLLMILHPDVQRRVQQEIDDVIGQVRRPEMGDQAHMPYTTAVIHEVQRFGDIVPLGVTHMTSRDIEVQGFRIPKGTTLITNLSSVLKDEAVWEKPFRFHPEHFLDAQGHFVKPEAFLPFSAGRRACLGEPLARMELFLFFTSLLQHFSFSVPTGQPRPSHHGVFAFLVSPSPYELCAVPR
# Chain of UniProt P11712 (P11712 whole entry, looked up): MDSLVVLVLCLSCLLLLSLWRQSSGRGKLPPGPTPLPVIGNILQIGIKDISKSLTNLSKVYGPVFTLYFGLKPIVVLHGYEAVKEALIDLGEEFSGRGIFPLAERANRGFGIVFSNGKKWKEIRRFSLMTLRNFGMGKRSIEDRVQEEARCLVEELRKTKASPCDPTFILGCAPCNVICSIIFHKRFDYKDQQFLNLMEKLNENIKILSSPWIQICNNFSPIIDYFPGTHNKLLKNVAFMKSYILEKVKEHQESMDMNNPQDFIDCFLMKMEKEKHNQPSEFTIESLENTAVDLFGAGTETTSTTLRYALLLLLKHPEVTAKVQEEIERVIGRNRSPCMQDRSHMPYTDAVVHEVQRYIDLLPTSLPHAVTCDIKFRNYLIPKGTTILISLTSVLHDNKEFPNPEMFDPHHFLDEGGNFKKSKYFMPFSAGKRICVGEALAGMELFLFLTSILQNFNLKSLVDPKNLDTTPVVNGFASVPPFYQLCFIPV
# Chain of UniProt P06401 (P06401 whole entry, looked up): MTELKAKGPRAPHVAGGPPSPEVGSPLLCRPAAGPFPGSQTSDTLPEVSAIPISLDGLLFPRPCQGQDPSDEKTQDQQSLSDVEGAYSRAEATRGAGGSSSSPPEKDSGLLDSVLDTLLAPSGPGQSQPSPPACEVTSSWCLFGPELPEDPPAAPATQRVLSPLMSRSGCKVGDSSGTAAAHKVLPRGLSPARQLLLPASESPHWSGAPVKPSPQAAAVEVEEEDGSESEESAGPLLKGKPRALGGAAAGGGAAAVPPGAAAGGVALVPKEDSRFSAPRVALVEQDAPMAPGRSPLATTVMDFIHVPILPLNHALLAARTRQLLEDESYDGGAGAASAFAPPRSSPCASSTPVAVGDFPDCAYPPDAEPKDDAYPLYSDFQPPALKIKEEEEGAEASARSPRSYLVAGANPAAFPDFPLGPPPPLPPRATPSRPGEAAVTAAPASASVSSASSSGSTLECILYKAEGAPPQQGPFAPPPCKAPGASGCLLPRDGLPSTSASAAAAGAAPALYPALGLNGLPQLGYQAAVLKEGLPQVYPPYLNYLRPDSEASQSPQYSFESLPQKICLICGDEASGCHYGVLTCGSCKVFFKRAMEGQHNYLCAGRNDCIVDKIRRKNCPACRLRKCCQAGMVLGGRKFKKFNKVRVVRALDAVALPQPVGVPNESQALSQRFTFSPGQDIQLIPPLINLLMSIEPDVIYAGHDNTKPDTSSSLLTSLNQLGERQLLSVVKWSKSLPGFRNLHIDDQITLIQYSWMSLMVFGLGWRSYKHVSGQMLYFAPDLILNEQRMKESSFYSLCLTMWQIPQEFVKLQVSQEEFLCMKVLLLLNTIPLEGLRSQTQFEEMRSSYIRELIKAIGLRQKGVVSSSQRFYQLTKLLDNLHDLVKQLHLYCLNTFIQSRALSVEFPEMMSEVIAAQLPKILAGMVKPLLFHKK
# Chain of UniProt P05177 (P05177 whole entry, looked up): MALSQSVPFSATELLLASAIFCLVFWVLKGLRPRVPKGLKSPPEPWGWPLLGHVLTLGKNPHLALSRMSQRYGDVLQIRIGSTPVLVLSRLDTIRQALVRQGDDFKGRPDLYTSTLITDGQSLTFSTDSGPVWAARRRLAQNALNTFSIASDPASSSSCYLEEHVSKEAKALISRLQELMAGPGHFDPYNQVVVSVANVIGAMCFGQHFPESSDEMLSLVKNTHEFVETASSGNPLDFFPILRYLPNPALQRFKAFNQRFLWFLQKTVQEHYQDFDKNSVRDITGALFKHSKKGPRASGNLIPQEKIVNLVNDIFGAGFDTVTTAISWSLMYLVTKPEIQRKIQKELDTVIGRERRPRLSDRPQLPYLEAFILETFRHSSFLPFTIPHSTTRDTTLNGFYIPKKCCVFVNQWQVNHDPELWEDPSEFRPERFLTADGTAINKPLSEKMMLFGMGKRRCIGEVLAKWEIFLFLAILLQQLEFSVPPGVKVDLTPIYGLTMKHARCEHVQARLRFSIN
# Chain of UniProt Q92731 (Q92731 whole entry, looked up): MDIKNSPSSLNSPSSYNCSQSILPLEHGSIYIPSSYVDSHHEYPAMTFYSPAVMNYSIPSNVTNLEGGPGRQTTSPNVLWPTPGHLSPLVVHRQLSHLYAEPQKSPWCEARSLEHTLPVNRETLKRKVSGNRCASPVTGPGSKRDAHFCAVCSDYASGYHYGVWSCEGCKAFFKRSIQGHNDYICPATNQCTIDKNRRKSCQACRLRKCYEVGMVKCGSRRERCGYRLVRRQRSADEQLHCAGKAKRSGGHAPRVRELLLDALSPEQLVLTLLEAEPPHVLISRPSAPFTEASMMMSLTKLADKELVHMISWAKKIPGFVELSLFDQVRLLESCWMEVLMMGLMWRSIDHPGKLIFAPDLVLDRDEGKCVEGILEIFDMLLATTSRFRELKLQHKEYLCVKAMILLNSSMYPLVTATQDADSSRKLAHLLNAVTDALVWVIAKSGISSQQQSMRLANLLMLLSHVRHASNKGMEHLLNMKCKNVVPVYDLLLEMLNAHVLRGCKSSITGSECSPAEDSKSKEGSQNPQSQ
# Chain of UniProt P04150 (P04150 whole entry, looked up): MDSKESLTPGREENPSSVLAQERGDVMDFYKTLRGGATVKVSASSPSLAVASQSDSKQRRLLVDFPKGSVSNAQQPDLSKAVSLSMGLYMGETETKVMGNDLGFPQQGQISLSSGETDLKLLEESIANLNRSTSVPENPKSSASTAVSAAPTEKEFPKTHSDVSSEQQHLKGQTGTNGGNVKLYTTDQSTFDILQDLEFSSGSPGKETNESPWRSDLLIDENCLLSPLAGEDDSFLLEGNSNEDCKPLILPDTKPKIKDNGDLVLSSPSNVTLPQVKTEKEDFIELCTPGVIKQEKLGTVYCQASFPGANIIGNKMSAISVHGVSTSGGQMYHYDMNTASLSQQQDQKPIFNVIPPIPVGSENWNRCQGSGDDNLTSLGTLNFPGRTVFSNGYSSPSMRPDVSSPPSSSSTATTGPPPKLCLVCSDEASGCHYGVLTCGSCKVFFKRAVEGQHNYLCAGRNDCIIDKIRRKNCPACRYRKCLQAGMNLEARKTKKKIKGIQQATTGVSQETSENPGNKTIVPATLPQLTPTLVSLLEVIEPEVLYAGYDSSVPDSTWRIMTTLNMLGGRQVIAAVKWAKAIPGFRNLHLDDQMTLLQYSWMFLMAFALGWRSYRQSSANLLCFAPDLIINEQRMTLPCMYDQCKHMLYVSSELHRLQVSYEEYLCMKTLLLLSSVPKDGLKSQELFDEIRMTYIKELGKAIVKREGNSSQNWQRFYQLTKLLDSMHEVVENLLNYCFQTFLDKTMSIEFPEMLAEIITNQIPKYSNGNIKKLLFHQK
compound,measurement,setting,value
[O]=[Mo](=[O])=[O],Potency,[1],inactive
same,"ratio activity, negative = inhibition",[2],inconclusive: -11.5% [at 28.9 µM]
same,Potency,[3],"inconclusive: 13.2 µM [cytotoxic, single point]"
same,"activity change, negative = inhibition",[4],inactive: 2.53% [at 23.6 µM]
CCCCC1CCC(O)CC1 (centres undefined),Potency,[5],inactive
same,Potency,[6]; [20],inactive
same,"activity change, negative = inhibition",[7],inconclusive: -2.32%
same,Potency,[8],inactive
same,Potency,[9],inactive
same,Potency,[10],inactive
same,Potency,[4],"inconclusive: 44.8 µM [inhibitor, partial curve]"
O=C(O)CCCCCC(=O)O,Potency,[7],inactive
same,Potency,[11],inactive
same,Potency,[12]; [21],inactive
same,activation,[1],inconclusive: 32.8% [at 94.8 µM]
same,Potency,[9],inactive
same,Potency,[13],inactive
same,Potency,[10],inactive
same,Potency,[14],inactive
same,Potency,[15],"inconclusive: 80.2 µM [inhibitor, partial curve]"
CC(NC(CCc1ccccc1)C(=O)O)C(=O)N1C(=O)N(C)CC1C(=O)O (centres undefined),Potency,[12]; [21],inactive
CCCCCCCCCCCC,"activity change, negative = cytotoxic",[11],inconclusive: 15.6%
same,activation,[1],inconclusive: 2.87%
same,Potency,[10],"inconclusive: 61.1 µM [falling, partial curve, poor fit]"
same,Potency,[14],active: 68.6 µM
same,Potency,[16],inactive
C[C@@H]1CN(c2c(F)c(F)c3c(=O)c(C(=O)O)cn(C4CC4)c3c2F)C[C@H](C)N1,Potency,[6]; [20],inactive
same,Potency,[11],"inconclusive: 13.3 µM [cytotoxic, single point]"
same,Potency,[12]; [21],inactive
same,Potency,[1],"inconclusive: 13 µM [rising, partial curve]"
same,Potency,[2],inactive
same,"activity change, negative = inhibition",[9],inactive: 4.05% [at 23.6 µM]
same,Potency,[17],"inconclusive: 0.058 µM [cytotoxic, partial curve, poor fit]"
CCN(Cc1cccc(S(=O)(=O)O)c1)c1ccccc1,Potency,[5],inactive
same,"ratio activity, negative = MMP loss",[6]; [20],inconclusive: 24.6%
same,Potency,[18],"inconclusive: 15.4 µM [rising, single point]"
same,"activity, negative = cytotoxicity",[19],inconclusive: -47.1% [cytotoxic]
same,"ratio activity, negative = inhibition",[12]; [21],inconclusive: -5.02%
same,Potency,[9],"inconclusive: 71 µM [inhibitor, partial curve]"
same,Potency,[15],"inconclusive: 35.6 µM [inhibitor, partial curve]"
same,Potency,[16],active: 17.8 µM
O=C(O)/C=C/c1ccccc1,"ratio activity, negative = MMP loss",[6]; at 83.2 µM (top of the series),inactive: -7.12%
O=C1C(N(CO)C(=O)NCO)N(CO)C(=O)N1CO (centres undefined),"ratio activity, negative = MMP loss",[6]; at 83.2 µM (top of the series),inactive: 5.22%
c1ccc2c(c1)[nH]c1ccccc12,"ratio activity, negative = inhibition",[12]; at 62.6 µM (top of the series),inactive: 0.411%
C[Si]1(C)O[Si](C)(C)O[Si](C)(C)O[Si](C)(C)O1,"ratio activity, negative = inhibition",[12]; at 62.6 µM (top of the series),inconclusive: -5.68%
same,"ratio activity, negative = inhibition",[12]; at 81.1 µM (top of the series),inconclusive: 0.58%
O=C(O[C@@H](C(=O)O)[C@@H](OC(=O)c1ccccc1)C(=O)O)c1ccccc1,Potency,[11],inactive
same,"ratio activity, negative = inhibition",[12]; [21],inconclusive: 2.81% [at 81.1 µM]
same,Potency,[14],"inconclusive: 78.2 µM [rising, single point]"
same,Potency,[17],inactive
same,Potency,[16],inactive
CN(C)CCN1CCOCC1,Potency,[13],inactive
same,Potency,[15],"inconclusive: 79.6 µM [inhibitor, partial curve, poor fit]"
same,Potency,[4],inactive
